Measured values taken from PubChem BioAssay AID686971 (National Center for Advancing Translational Sciences (NCATS), 2013).
Among all 360,000 compounds or so, about 7,500 (2.1%) were called active. Inconclusive means that the source gave no clear call. Such entries were picked first, then a sample of the others. Calls follow the shape of the dose curve; as a rule, active = well fitted cell-killing curve with a large enough effect; inconclusive = small, poorly fitted or top-dose-only effect, or effect the other way, or another doubt; inactive = no such curve, though single readings can be large or run the other way. No potency is given beside an inconclusive call; the fits are too rough.

Assay: qHTS for induction of synthetic lethality in tumor cells producing 2HG: qHTS for the HT-1080-IDH1KD cell line;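 as to activity, negative = toxicity: 0% = DMSO wells and -100% = cell-free medium wells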
Settings: HT-1080 IDH1 knockdown viability, ATP luminescence, 48 h; activity, negative = toxicity: at 46.1 µM (top of the series) unless noted
How it was run: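 Using the IDH1-knockdown HT-1080 line run in the same batch and compound series as the NT line, viability after 48 h at 37 °C was determined by CellTiter-Glo luminescence and expressed as % activity.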
Potency is read from the fitted curve at half-maximal effect; tags tell the direction and shape of the fitted curve.

SMILES	Potency	activity, negative = toxicity
Nc1c2c(nc3ccccc13)N(C1CCCCC1)CC2	inactive	
COC(=O)[C@]12CCCCC=C1N(Cc1ccc(Cl)cc1Cl)C(=O)[C@H](CC(=O)NCCCCc1ccccc1)C2	inconclusive [cytotoxic, partial curve]	
CCCNC(=O)c1ccc2nc(-c3ccccc3)c(-c3ccccc3)nc2c1	inactive	
O=C(Nc1cc(S(=O)(=O)N2CCOCC2)ccc1N1CCCCC1)c1ccccc1Br	inactive	
Cn1cc([N+](=O)[O-])c(C(=O)Nc2ccc(C3CCCCC3)cc2)n1	inconclusive [cytotoxic, single point]	
O=C(C=CC(=O)Nc1ccc(F)cc1F)Nc1ccc(F)cc1F	inconclusive [rising, single point]	
O=C(CCN1CCOCC1)c1ccc2c(c1)OCCO2	inconclusive [cytotoxic, single point]	
COCc1[nH]nc2c1C(C1C=CCCC1)C(C#N)=C(N)O2 (centres undefined)	active: 11.2 µM	
CCn1cc(C(=O)NCC2CCCO2)c(=O)c2cc(S(=O)(=O)N(C)C)ccc21 (centres undefined)	inactive	
CN(C)c1cccc(F)c1C(=O)NC(=O)Nc1ccc(Cl)cc1	inconclusive [cytotoxic, single point]	
CCOC(=O)c1ccc(-c2csc(NC(=O)CN3CCC(C)CC3)n2)cc1	inconclusive [cytotoxic, single point]	
COC(=O)Nc1ccc(OCc2ccccc2)cc1	inactive	
Cc1cccc(NC(=S)NC2CC3CCCC(C2)N3Cc2cccs2)c1 (centres undefined)	inconclusive [cytotoxic, single point]	
CCc1cc(C(=O)N/N=C/c2ccc(O)cc2)c2ccccc2n1	inconclusive [cytotoxic, partial curve]	
Oc1ccc(N=Nc2ccccc2C(F)(F)F)c2cccnc12	inconclusive [cytotoxic, partial curve]	
Cc1ccc2nc(C)cc(N/N=C/c3cccc(O)c3)c2c1	active: 20.6 µM	
Cc1cc(SCC(=O)N/N=C/c2ccc(O)cc2O)c(C)cc1Br	inconclusive [cytotoxic, single point]	
COc1cc(CCC(=O)OCC(=O)NCCc2ccc(S(N)(=O)=O)cc2)cc(OC)c1OC	inactive	
CC(=O)c1c(C)[nH]c(C(=O)OC(C)C(=O)NC2CCCCC2)c1C (centres undefined)	inactive	
CCn1cc(CN2CCCC(CNS(=O)(=O)c3ccc(OC)cc3)C2)cn1 (centres undefined)	inactive	
COc1ccccc1CCn1c(N)cc(=O)[nH]c1=O	inactive	
CC(NCCCOc1cccc2ccccc12)c1ccccc1 (centres undefined)	inconclusive [cytotoxic, single point]	
CCCCc1cn([C@@H](CCCCNC(=O)OC(C)(C)C)C(=O)N2CCN(C(=O)OC(C)(C)C)CC2)nn1	inactive	
CCOC(=O)N1CCN(C(=O)CCCCCn2c(=S)[nH]c3cc4c(cc3c2=O)OCO4)CC1		inconclusive: 32%
O=C(CC1Sc2ccccc2NC1=O)NCc1cccc(Cl)c1 (centres undefined)	inconclusive [cytotoxic, single point]	

SMILES	Potency	activity, negative = toxicity
COCCCNC(=O)c1c(N)n(-c2ccc(S(N)(=O)=O)cc2)c2nc3ccccc3nc12	inconclusive [cytotoxic, single point]	
Cc1ccc(NS(=O)(=O)c2ccc3c(c2)CCN3C(=O)CCC(=O)O)cc1Cl	inactive	
COc1cccc(-c2cc(C(F)(F)F)nc(-n3cc(Cl)cn3)n2)c1	inactive	
O=C(NNc1cccc(Cl)c1)c1cccnc1Oc1ccccc1	active: 6.51 µM	
Cc1ccc2nc(N(CCCN(C)C)C(=O)CCc3ccccc3)sc2c1	active: 16.4 µM	
Cc1ccc(C)c(OCCCN2CCc3ccccc3C2)c1	inconclusive [cytotoxic, single point]	
COc1cc(C(=O)O/N=C2\C=CC(=O)C(C)=C2)cc(OC)c1OC	inconclusive [cytotoxic, partial curve]	
CCOC(=O)CCCNc1ccc([N+](=O)[O-])cc1[N+](=O)[O-]		inconclusive: -10.7% [cytotoxic]
CCOC(=O)c1cnc2nc(COc3ccccc3)[nH]n2c1=O		inconclusive: 31.2%
O=C(N/N=C/c1cccs1)c1cccc(S(=O)(=O)Nc2ccc(Cl)cc2)c1	active: 16.4 µM	
Cc1cc(C(=O)CSc2nc3ccccc3[nH]2)c(C)n1CC1CCCO1 (centres undefined)	inconclusive [cytotoxic, single point]	
O=C1S/C(=C\C=C\c2ccco2)C(=O)N1c1ccc(O)cc1	inconclusive [cytotoxic, partial curve]	
O=C(Nc1ccc2c(c1)OCCO2)N1CCN(c2ccc(F)cc2)CC1	inactive	
COc1cc2c(cc1NC(=S)Nc1cccc(C)c1)oc1ccccc12	inconclusive [cytotoxic, single point]	
Cc1ccc2c(c1)Oc1ccc(NC(=O)CCCl)cc1C(=O)N2	active: 16.4 µM	
CCOC(=O)c1c(C)oc2ccc(OCc3cc(C(=O)OC)oc3C)cc12	inconclusive [cytotoxic, single point]	
COc1ccccc1N1CCN(S(=O)(=O)CCNC(=O)Cc2ccc(F)cc2)CC1	inconclusive [cytotoxic, single point]	
N#C/C(=N\Nc1ccc(Cl)c(Cl)c1)C(=O)C1CC1	active: 2.91 µM	
COc1ccc(-c2c(C)sc(NC(=O)c3ccnn3C)c2C#N)cc1	active: 20.6 µM	
CC1(C)c2ccccc2N2CC(=O)N[C@@]21/C=C/C=C/c1ccccc1	inconclusive [cytotoxic, single point]	
COCCCN1C(=O)C(CC(=O)NCC2CCCCC2)CC(C(=O)N(C(C)C)C(C)C)=C1C (centres undefined)	inactive	
O=C(NNC(=O)c1cc(Cl)ccc1O)c1cccs1	inconclusive [cytotoxic, partial curve]	
Cc1ccc(NC(=O)c2ccc([N+](=O)[O-])o2)cc1C	active: 13 µM	
O=C(C1CCCN(Cc2ccccc2[N+](=O)[O-])C1)N1CCCC1 (centres undefined)	inconclusive [rising, single point]	
Cc1ccc(S(=O)(=O)c2nc(Nc3nccs3)sc2Cl)cc1	inconclusive [cytotoxic, partial curve]	

SMILES	Potency	activity, negative = toxicity
CCN(CC(=O)Nc1ccccc1OC)C(=O)C1CCCC1	inactive	
O=C(CSc1ccc(Cl)cc1)N/N=C/c1ccc([N+](=O)[O-])o1	inactive	
CN(C)c1ccc(C(=O)OCc2ccccc2)cc1	inactive	
CCN1C(=O)c2cccc3c(S(=O)(=O)N4CCC(C)CC4)ccc1c23	inactive	
COc1ccc(CCN2C(=O)CSC2=S)cc1OC	active: 23.1 µM	
COc1ccc(CNS(=O)(=O)c2cc(-c3cc(C)no3)ccc2C(C)C)cc1	active: 3.66 µM	
O=C1NC[C@H](Cc2ccc(O)cc2)N(C[C@@H]2CCCN2C[C@H](Cc2ccc(O)cc2)N2C[C@H](Cc3ccccc3)N(CC3CCCCCC3)C(=O)C2=O)C1=O	inactive	
Cc1ccc(OCC(=O)c2cc(C)n(CC(F)(F)F)c2C)c([N+](=O)[O-])n1	inconclusive [cytotoxic, single point]	
CC[C@H]1OC(=O)[C@H](C)[C@@H](O[C@H]2C[C@@](C)(OC)[C@@H](O)[C@H](C)O2)[C@H](C)[C@@H](O[C@@H]2O[C@H](C)C[C@H](N(C)C)[C@H]2O)[C@](C)(O)C[C@@H](C)CN(C)[C@H](C)[C@@H](O)[C@]1(C)O	inconclusive [cytotoxic, single point]	
Cc1ccc(C(=O)C(C)Sc2nnc(N)s2)cc1 (centres undefined)	inactive	
Cc1ccc2occ(/C=N/NC(=O)c3ccccc3O)c(=O)c2c1	inconclusive [cytotoxic, partial curve]	
N#Cc1c(N)n(C2OC(CO)C(O)C2O)c2ncnc(N)c12 (centres undefined)	active: 0.517 µM	
C=CCC[C@@H](Cc1ccc(F)cc1)C(=O)OC[C@@H](Cc1c[nH]c2ccccc12)NC(=O)[C@@H](CC=C)CC(=O)N(CCO)Cc1ccccc1	inconclusive [cytotoxic, single point]	
COc1ccc(NC(=S)/N=C(\N)Nc2nc(C)c3ccccc3n2)cc1	inconclusive [cytotoxic, partial curve, poor fit]	
COc1ccc(-c2cc(C(F)(F)F)nc(NC3CCCC3)n2)cc1OC	inconclusive [cytotoxic, single point]	
C[C@@H](NC(=O)c1[nH]cnc1C(=O)Nc1ccc(Cl)cc1)c1ccccc1	inconclusive [cytotoxic, single point]	
O=C(Nc1ccc(S(=O)(=O)N2CCC(C(=O)NC3CCCCC3)CC2)cc1)c1ccco1	inconclusive [cytotoxic, single point]	
CC(C)(C)OC(=O)N(CCc1ccccc1)Cc1ccccc1OCc1cccc(NC(=O)C2CC2)c1	inactive	
COc1cccc(OC)c1OCc1cc(C2C3CCCC=C3C(C#N)=C(N)C2(C#N)C#N)c(C)cc1C (centres undefined)	inconclusive [cytotoxic, single point]	
COc1ccc(-c2noc(CCC(=O)N3CCN(c4cccc(C(F)(F)F)c4)CC3)n2)cc1		inactive: -0.335% [at 9.24 µM]
CCN(Cc1ccc(Cl)s1)C(=O)c1cccc(OCc2c(C)noc2C)c1	inactive	
O=C(Nc1ccccc1Cl)O/N=C/c1ccncc1	inactive	
CN1CCC(Oc2ccccc2Sc2ccccc2)CC1	inactive	
Nc1nnc(SCC(=O)N2CCc3ccccc3C2)s1	inactive	
